In the antibiotic and cytotoxicity screens of Wong et al. (2023):
The list shows a part of the results.

These molecules were tested on S. aureus RN4220 (assay: growth inhibition call (relative growth <= 0.2)). Conditions: 50 µM.

Growth inhibition call, inactive:
C[C@H](CO)N1C[C@H](C)[C@H](CN(C)Cc2ccc(-c3ccccc3)cc2)OCc2ccccc2-c2ccccc2C1=O
COc1ccc(NC(=O)N(C)C[C@H]2Oc3c(NC(=O)C4CCOCC4)cccc3C(=O)N([C@@H](C)CO)C[C@H]2C)cc1
Cc1ccc(-c2ccc3c(c2)O[C@@H](CN(C)C(=O)Nc2ccc(C(F)(F)F)cc2)[C@H](C)CN([C@@H](C)CO)S3(=O)=O)cc1
Cc1noc(C)c1S(=O)(=O)N(C)C[C@@H]1OCCCC[C@H](C)Oc2ccc(NS(C)(=O)=O)cc2C(=O)N([C@@H](C)CO)C[C@H]1C
Nc1ccc(S(=O)(=O)Nc2nccs2)cc1
O=C1NC(=O)NC2(N1)C(=O)Nc1ccccc12
C[C@H]1CN([C@@H](C)CO)C(=O)Cc2cc(NC(=O)Nc3ccccc3)ccc2O[C@@H]1CN(C)Cc1ccc(Oc2ccccc2)cc1
CCCNC(=O)Nc1ccc2c(c1)C(=O)N(C)C[C@@H](OC)[C@@H](C)CN(Cc1ccc(-c3ccccn3)cc1)[C@H](C)CO2
C[C@H](CO)N1C[C@H](C)[C@H](CN(C)S(=O)(=O)c2ccc(F)cc2)OCCCC[C@H](C)Oc2ccc(NC(=O)Nc3ccc(F)cc3)cc2C1=O
C[C@@H]1CCCCO[C@@H](CN(C)CC2CCCCC2)[C@@H](C)CN([C@@H](C)CO)C(=O)c2cc(NC(=O)Nc3ccc4c(c3)OCO4)ccc2O1
COc1ccc(S(=O)(=O)N(C)C[C@H]2OCCCC[C@@H](C)Oc3ccc(NS(=O)(=O)c4cn(C)cn4)cc3C(=O)N([C@@H](C)CO)C[C@@H]2C)cc1
Cc1ccc(S(=O)(=O)N(C)C[C@H]2Oc3ccc(NC(=O)Cn4cnnn4)cc3CC(=O)N([C@H](C)CO)C[C@H]2C)cc1
O=C(Cn1cc(COc2ccc(Cl)c(Cl)c2)nn1)NS(=O)(=O)c1cccc(OC(F)F)c1
COc1ccc([C@H]([C@@H](O)Cc2ccccc2)N(CC#C[C@@H](O[Si](c2ccccc2)(c2ccccc2)C(C)(C)C)c2ccccc2)[C@@H](Cc2ccccc2)C(OC)OC)cc1
COc1cccc(NC(=O)N[C@H]2CC[C@H](CC(=O)N3CCN(C)CC3)O[C@@H]2CO)c1
C[C@H]1CN([C@@H](C)CO)C(=O)c2cc(NC(=O)Cn3cnnn3)ccc2O[C@H]1CN(C)Cc1ccc(C(=O)Nc2ccccc2N)cc1
O=C(CN1CCOCC1)N[C@H]1CC[C@H](CCNS(=O)(=O)c2ccccc2F)O[C@@H]1CO
C[C@@H]1CN([C@@H](C)CO)C(=O)c2cccc(NC(=O)CCCCCC(=O)Nc3ccccc3N)c2O[C@H]1CN(C)C(=O)Nc1cccc2ccccc12
Cc1cn(-c2cc(NC(=O)c3ccc(C)c(Nc4nccc(-c5cnccn5)n4)c3)cc(C(F)(F)F)c2)cn1
C[C@@H]1CN([C@H](C)CO)S(=O)(=O)c2ccc(C#Cc3ccncc3)cc2O[C@H]1CN(C)S(=O)(=O)c1ccc(F)cc1
COc1ccc2c(c1)c(-c1cccc(C)c1)nn2-c1ccccc1
COCC(=O)N1CC[C@]2(CC1)CN([C@H](CO)c1c2c2ccc(cc2n1C)OC)C(=O)CN1CCOCC1
C[C@@H]1CCCCO[C@@H](CN(C)Cc2ccc3c(c2)OCO3)[C@@H](C)CN([C@H](C)CO)C(=O)c2cc(NS(=O)(=O)c3ccccc3)ccc2O1
COc1ccc(CNCC(=O)O)cc1
Cc1ccc(S(=O)(=O)Nc2ccc3c(c2)C(=O)N([C@H](C)CO)C[C@@H](C)[C@@H](CN(C)C(=O)C2CCCCC2)OCCCC[C@H](C)O3)cc1
Nc1nnc(N[C@H]2CCCCNC2=O)[nH]1
C[C@H](CO)N1C[C@H](C)[C@@H](CN(C)Cc2ccc(C(=O)Nc3ccccc3N)cc2)Oc2ccc(NS(=O)(=O)c3cn(C)cn3)cc2CC1=O
COc1ccc(-c2ccc3c(c2)O[C@H](CN(C)CC2CCOCC2)[C@@H](C)CN([C@@H](C)CO)S3(=O)=O)cc1
CC12CCC3c4ccc(OC(=O)c5ccccc5)cc4CCC3C1CCC2O (stereo not given)
C[C@@H]1CN([C@@H](C)CO)C(=O)c2cc(NS(=O)(=O)c3ccc(Cl)cc3)ccc2O[C@H]1CN(C)Cc1ccc(C(=O)Nc2ccccc2N)cc1
